# Experimental data taken from PMC4336329 (PLoS ONE, 2015).
# The whole screen tested about 310,000 compounds, of which about 2,200 (0.71%) showed an effect of 50% or more. The effect is printed as a negative number. The list shows a part of the results.
# Target: human ether-à-go-go-related gene (hERG) potassium channel (human, UniProt Q12809)
# Experiment: primary screen, population patch clamp on CHO cells stably expressing hERG
# Sequence of human ether-à-go-go-related gene (hERG) potassium channel (Q12809 whole entry, looked up): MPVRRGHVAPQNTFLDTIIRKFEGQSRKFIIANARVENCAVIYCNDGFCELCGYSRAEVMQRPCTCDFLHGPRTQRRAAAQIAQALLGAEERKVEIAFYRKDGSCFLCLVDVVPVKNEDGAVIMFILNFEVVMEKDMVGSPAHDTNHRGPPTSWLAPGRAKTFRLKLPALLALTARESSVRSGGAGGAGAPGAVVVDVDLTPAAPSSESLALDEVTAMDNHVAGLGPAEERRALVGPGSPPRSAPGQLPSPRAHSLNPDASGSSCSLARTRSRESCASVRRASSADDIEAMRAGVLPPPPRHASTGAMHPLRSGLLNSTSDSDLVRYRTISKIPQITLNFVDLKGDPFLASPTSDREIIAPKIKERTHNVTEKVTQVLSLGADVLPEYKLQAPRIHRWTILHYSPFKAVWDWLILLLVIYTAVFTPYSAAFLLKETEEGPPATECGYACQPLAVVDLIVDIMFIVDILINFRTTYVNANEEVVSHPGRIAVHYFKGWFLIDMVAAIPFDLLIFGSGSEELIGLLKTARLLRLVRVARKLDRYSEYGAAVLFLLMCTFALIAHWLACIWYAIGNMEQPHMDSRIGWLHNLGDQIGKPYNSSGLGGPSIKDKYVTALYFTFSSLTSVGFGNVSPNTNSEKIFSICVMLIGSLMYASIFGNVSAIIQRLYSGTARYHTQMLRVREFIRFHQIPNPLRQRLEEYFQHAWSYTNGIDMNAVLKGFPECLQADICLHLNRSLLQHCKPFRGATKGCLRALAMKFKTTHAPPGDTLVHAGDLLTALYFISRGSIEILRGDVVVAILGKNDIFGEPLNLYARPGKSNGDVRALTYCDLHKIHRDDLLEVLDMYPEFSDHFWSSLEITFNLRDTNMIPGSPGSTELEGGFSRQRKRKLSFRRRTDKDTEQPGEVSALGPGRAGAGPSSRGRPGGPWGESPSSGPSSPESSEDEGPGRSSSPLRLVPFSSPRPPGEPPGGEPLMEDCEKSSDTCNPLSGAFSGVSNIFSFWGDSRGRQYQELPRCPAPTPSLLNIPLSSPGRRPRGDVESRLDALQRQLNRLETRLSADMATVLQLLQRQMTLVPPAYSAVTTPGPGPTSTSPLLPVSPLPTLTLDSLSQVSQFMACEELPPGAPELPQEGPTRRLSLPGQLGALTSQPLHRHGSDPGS
row,Compound,"hERG current change (%, negative = inhibition) at 1uM [%]"
1,CC(=O)Nc1ccc2[nH]ccc2c1,4.88
2,Cc1occc1C(=O)N/N=C/C=C\c1ccccc1[N+](=O)[O-],-0.373
3,COc1ccc(OCCNC(=O)Nc2cc(F)c(F)cc2Cl)cc1,0.57
4,CCn1cc(C(=O)N2CCN(c3ccccn3)CC2)c(=O)c2cc(S(=O)(=O)N3CCC(C)CC3)ccc21,-7.95
5,O=C(CCc1nc2ccccc2c(=O)[nH]1)NNC(=O)c1ccccc1Cl,0.0164
6,CCNC(=O)CCn1nc(-c2ccc(Cl)cc2)c2ccccc2c1=O,0.219
7,COC(=O)Cn1nc(C)c2ccccc2c1=O,4.81
8,Cc1nc(N2CCOCC2)nc(N2CCN(c3ccccc3)CC2)c1[N+](=O)[O-],11.2
9,NC(=O)CSc1ccc(Br)cc1,4.93
10,Cc1ccccc1C(=O)NNC(=O)C(C)N1C(=O)c2ccccc2C1=O (centres unmarked),6.49
11,CC(=O)N1CCN(C(=O)CCc2cc(C(C)(C)C)c(O)c(C(C)(C)C)c2)CC1,20.1
12,O=C(N/N=C/c1nn(-c2ccccc2)cc1-c1ccc(Cl)cc1)c1ccncc1,18.8
13,CCO.C[C@H]1c2cccc(O)c2C(O)=C2C(=O)[C@]3(O)C(O)=C(C(N)=O)C(=O)[C@@H](N(C)C)[C@@H]3[C@@H](O)[C@@H]21.Cl.O,8.42
14,CS(=O)(=O)N(CC(=O)N1CCc2ccccc2C1)Cc1ccc(F)cc1,6.99
15,CCCCN(C)CCNC(=O)CN1C(=O)CSc2ccc(S(=O)(=O)N3CCCC3)cc21,14.5
16,Cc1cc(NS(=O)(=O)c2ccc(Cl)cc2)nn1CC(=O)NCc1ccco1,11.8
17,CCOc1ccc(N2C(=O)C3C(C2=O)C3(c2ccccc2)c2ccccc2)cc1 (centres unmarked),6.77
18,Cc1ccccc1C(=O)N1CCC(C(=O)NCCc2ccc(S(N)(=O)=O)cc2)CC1,14
19,CCS(=O)(=O)c1nc(S(=O)(=O)c2ccc(Cl)cc2)c(NCCCN2CCCC2=O)s1,17.5

row,Compound,"hERG current change (%, negative = inhibition) at 1uM [%]"
1,Cc1cc(C)c(NC(=O)c2ccc3c(c2)C(=O)N(Cc2cccnc2)C3=O)c(C)c1,2.74
2,COCCn1c(Cc2ccccc2)nnc1SCC(=O)N(C)C,5.65
3,CCOC(=O)c1[nH]cnc1C(=O)O,5.03
4,Cc1cc(C(=O)OCC(=O)c2ccccc2)c2ccccc2n1,15.2
5,C=CCNc1ncnc2c1[nH]c1ccccc12,2.98
6,Cc1nc(-c2ccc(F)cc2)c(CC(=O)N2CCN(S(=O)(=O)c3cccc(F)c3)CC2)s1,10.5
7,CN(C)CCCNc1ncnc2c1cnn2-c1ccccc1,6.33
8,Cc1ccc(NC(=O)c2cc(NC(=O)c3ccco3)ccc2N2CCOCC2)cc1Cl,-3.21
9,O=C1CCN(C(=O)Cc2ccccc2[N+](=O)[O-])CC1,14.3
10,CN(C)CCCC1Sc2ccccc2Sc2ccccc21.O=C(O)C(=O)O (centres unmarked),4.39
11,COc1ccc(NC(=O)COc2ccc(C)nc2[N+](=O)[O-])cc1S(N)(=O)=O,6.34
12,CCOc1ccccc1NC(=O)c1ccc(OCC)c([N+](=O)[O-])c1,1.13
13,CNC(=O)Oc1cccc(-c2cn3cc(OC(=O)NC)ccc3n2)c1,-0.168
14,CC(=O)c1ccc(NC(=O)CN2C(=O)COc3ccc(S(=O)(=O)N4CCCC4)cc32)cc1,5.6
15,CC(C)COC(=O)C1C2C=CC3(CN(C4CCCC4)C(=O)C13)O2 (centres unmarked),-2.15
16,COC(=O)c1ccc(N=NNc2cccc(Br)c2)cc1,8.24
17,O=C(NC(=S)Nc1nc(-c2ccc([N+](=O)[O-])cc2)cs1)c1ccco1,13.5
18,COC(=O)c1cc(S(=O)(=O)N(C)C2CCCCC2)c[nH]1,14
19,CN(C)S(=O)(=O)c1ccc(Cl)c(C(=O)Nc2ccc(S(=O)(=O)N3CCOCC3)cc2)c1,7.8

row,Compound,"hERG current change (%, negative = inhibition) at 1uM [%]"
1,CCN(CC(=O)Nc1c(F)cccc1F)C(=O)c1cc2ccccc2oc1=O,-1.25
2,C=CCN1CN(S(=O)(=O)c2ccc(OC)cc2)c2nc3ccccc3nc21,16.1
3,Cc1ccc(-n2cccc2/C=C2/NC(=O)N(CC(=O)Nc3cccc(C)c3)C2=O)cc1,1.56
4,Cc1c(Cl)cccc1NC(=O)c1ccccc1-c1ccccc1C(=O)O,9.88
5,O=C(CCl)NC1CCCc2ccccc21 (centres unmarked),9.5
6,CCCNC(=O)c1ccc(CN2CCOCC2)cc1,7.91
7,O=C(O)C(=O)O.c1ccc(-c2ccccc2OCCCN2CCCCC2)cc1,-69.1
8,O=C(N/N=C/c1cn(-c2ccccc2)nc1-c1cccs1)c1ccccc1F,12.2
9,CCN(CC(=O)NC(C)(C)C)Cc1cc(=O)n2c(-c3ccccc3)csc2n1,18.3
10,S=C(Nc1ccc(Cl)cc1Cl)N1CCOCC1,8.45
11,O=C(c1ccc(F)cc1)C1CCN(C(=O)Nc2ccc(F)cc2F)CC1,12.9
12,O=S(=O)(Nc1ccon1)c1ccc(F)c(F)c1,16.9
13,Cc1onc(-c2c(Cl)cccc2Cl)c1C(=O)ONC(=O)c1ccccc1,14.3
14,CSc1n[nH]c(NC(C)=O)n1,8.29
15,CC1CCCCC12NC(=O)N(CC(=O)NCc1ccco1)C2=O (centres unmarked),0.165
16,CCN(CC)C(=S)Nc1c(C)n(C)n(-c2ccccc2)c1=O,10.6
17,COc1cc(-c2nnc(COC(=O)c3nn(CC(C)C)c(=O)c4ccccc34)o2)cc(OC)c1OC,-5.77
18,COc1ccc(CCNC(=O)CCC(=O)Nc2ccccc2[N+](=O)[O-])cc1OC,11.5
